This is an account of results in PubChem BioAssay AID1240 (Sanford-Burnham Center for Chemical Genomics, 2008).

The whole screen tested about 50,000 compounds, of which about 800 (1.6%) showed an effect of 50% or more. This is one part of the list.

This test addresses Bcl-2-like protein 10 (Homo sapiens) (UniProt Q9HD36). The experiment in a line: Phenotype converters, Bcl-B/TR3 peptide binding displacement, primary biochemical FP (AID 1240).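 Also: 0% = Bcl-B with tracer peptide and DMSO and 100% = tracer peptide lacking Bcl-B.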 As to conditions: GST-Bcl-B / FITC-TR3 peptide fluorescence polarization; stronger effect = higher value; compound at 3.75 mg/L.
UniProt Q9HD36, sequence (Q9HD36 whole entry, looked up): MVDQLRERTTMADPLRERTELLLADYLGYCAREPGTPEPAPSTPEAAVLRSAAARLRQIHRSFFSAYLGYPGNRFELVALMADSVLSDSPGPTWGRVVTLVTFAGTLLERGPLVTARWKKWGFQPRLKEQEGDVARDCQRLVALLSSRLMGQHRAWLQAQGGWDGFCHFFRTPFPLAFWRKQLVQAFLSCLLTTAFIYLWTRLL
Consider `COc1ccc(S(=O)(=O)Nc2ccc(NS(=O)(=O)c3ccc(OC)cc3)c3ccccc23)cc1`, for which the displacement came to 11.4%. Turning to `COc1cc(/C=c2\sc3nc4ccccc4n3c2=O)cc(I)c1OCCOc1cccc(C)c1`, the displacement is 10.9%. Under `O=C(Nc1ccc(Cl)cc1)N1CCN(c2ccccc2Cl)CC1` stands 19.1%; under `COC(=O)c1cccc(NC(=O)COc2ccccc2C(C)(C)C)c1`, 5.3%.

Take `COCCOC(=O)C1=C(C)N=c2s/c(=C\c3ccccc3Cl)c(=O)n2C1c1ccc(OC)cc1` (configuration not stated): the displacement was 4.8%. Under `COCCN1C(=O)/C(=C\c2ccc(Cl)cc2Cl)C(C(=O)OC)=C1C` stands 7.1%. With `CCCCOC(=O)CSC1=C(C#N)C(c2cccc3ccccc23)CC(=O)N1` (configuration not stated), the displacement was -7.5%.

On to `CCOP(=O)(OCC)C(Nc1ccc([N+](=O)[O-])cc1)c1c[nH]c2ccccc12` (configuration not stated), for which the displacement came to 4.2%. Regarding `Cc1ccc(C)c(NC(=O)CSc2nc3ccccc3o2)c1`, the displacement is -4.7%. For `O=C1c2ccccc2C(=O)c2c(NC3CCCCC3)cccc21`, the displacement is -2.9%. Consider `COC(=O)c1cc(NC(=O)COc2ccc([N+](=O)[O-])cc2)cc(C(=O)OC)c1`, for which the displacement came out at 9.2%. In the case of `COc1ccc(NC(=O)c2c(-c3c(F)cccc3Cl)noc2C)c([N+](=O)[O-])c1`, the displacement was -9.1%.

`CC(C)C(=O)Nc1cccc(-c2nc3ccccc3o2)c1`: the displacement was -34.6%. On to `COC(=O)c1ccc(C(=O)OC)c(NC(=O)Cc2ccccc2[N+](=O)[O-])c1`, for which the displacement is 14.7%. Consider `O=S(=O)(c1cccs1)N1CCN(Cc2ccc3c(c2)OCO3)CC1`, for which the displacement was 7.5%.

On to `Cc1ccnc(NS(=O)(=O)c2ccc(NC(=O)C3CC=CCC3C(=O)O)cc2)n1` (configuration not stated), for which the displacement stood at 10.2%. Then `CCOc1ccc(C2(C)C(=O)N(CN3CCOCC3)C(=O)N2CN2CCOCC2)cc1` (configuration not stated), with 3%; and `Cc1ccc2c(c1)c(N=Nc1nnc3c(n1)[nH]c1ccccc13)c(O)n2C`, with 26.4%.

Consider `Cc1ccc(Cn2c(NC(=O)c3ccccc3)nc3ccccc32)cc1`, for which the displacement was -13.5%. For the compound `C=C1c2ccccc2NC(=O)N1c1cccc(Cl)c1`, the displacement came out at 13.6%. `O=C(Nc1ccc2c(c1)OCCO2)c1ccncc1`: the displacement is -2.6%. Regarding `Cc1ccc(S(=O)(=O)/N=C(/Nc2cccc(O)c2)c2ccccc2)cc1`, the displacement stood at 7.4%. Take `Cc1ccc(C(C)C)c(OCC(=O)Nc2cccnc2)c1`: the displacement was -7.7%. `CCOc1ccc(-c2cc(C(=O)Nc3cc(OC)c(Cl)cc3OC)c3ccccc3n2)cc1`: the displacement is 17.8%.

For `Cc1ccc(NS(=O)(=O)c2ccc(C)c([N+](=O)[O-])c2)cc1`, the displacement turned out to be 15.6%. For the compound `COc1ccc(/C=C2\SC(=S)N(c3cccc(C)c3C)C2=O)cc1`, the displacement was -3.5%.

As for `O=C(Nc1ccccc1Br)c1ccccc1[N+](=O)[O-]`, the displacement is -7.3%. Take `COc1ccc(Cl)cc1C(=O)Nc1ccc(N(C)C)cc1`: the displacement is 1.9%. Turning to `COc1cc(OC)cc(C(=O)N2CCN(Cc3cc(OC)ccc3OC)CC2)c1`, the displacement turned out to be 4.7%.

As to `CC(=O)C1=C(O)C(=O)N(CCN(C)C)C1c1ccccc1Cl` (configuration not stated), the displacement was -2.3%. Under `CCn1c(-c2ccccc2C)n[nH]c1=S` stands -17.3%; under `Cc1ccc(C(=O)CC2(O)C(=O)Nc3ccccc32)cc1` (configuration not stated), -2.1%. For the compound `CC1=[N+]([O-])C(C)(C)C(c2ccco2)=[N+]1[O-]`, the displacement was 14.4%.

For `CC(=O)NC1=NC(=O)/C(=C\c2ccc(I)o2)S1`, the displacement was 20.2%. For `COC(=O)/C(=N/O)c1c[nH]c2ccccc12`, the displacement came out at 5.9%. Then `NC1=NC(=O)/C(=C/c2cccc(Oc3ccccc3)c2)S1`, with 11.1%; and `Cc1ccc(NC2=NC3(CCCCC3)N=C(N)N2)cc1`, with -8.4%. Turning to `CCOC(=O)c1c(-c2ccccc2)oc2ccc(OC(=O)c3ccc([N+](=O)[O-])cc3)cc12`, the displacement came to 12.2%.

As for `N/C(=N\OC(=O)c1ccccc1Cl)c1ccncc1`, the displacement is -1.7%. Then `NC1=NC(=O)CC(C(=O)Nc2ccc(Cl)cc2)S1` (configuration not stated), with 2.1%; and `CCOc1ccccc1NC(=O)C1CN(S(=O)(=O)c2ccccc2)CCN1S(=O)(=O)c1ccccc1` (configuration not stated), with 11.2%.

Consider `O=C1/C(=C/c2ccc(Br)o2)SC(=S)N1c1ccc([N+](=O)[O-])cc1`, for which the displacement is -3%. For `CCn1c2ccccc2c2cc(CN3CCN(C(=O)CC(C)C)CC3)ccc21`, the displacement is -4.4%. With `COc1cc(/C=C2\SC(=S)N(Nc3ccccc3)C2=O)cc(OC)c1OC`, the displacement is 7.1%.

Take `C(=N\n1cnnc1)/c1cn[nH]c1-c1ccccc1`: the displacement is -0.9%.

With `O=C(NCc1ccccc1Cl)/C(=C\c1cccc(Br)c1)NC(=O)c1ccccc1`, the displacement was 4%.

In the case of `Cc1ccc(NC(=O)c2cc(I)ccc2Cl)c([N+](=O)[O-])c1`, the displacement is 8.7%. Consider `COC(=O)CN1C(=O)/C(=C\c2cccc(O)c2)SC1=S`, for which the displacement is 0%. For the compound `CC1(C)CC(Cc2ccccc2)(C(=O)O)CCO1` (configuration not stated), the displacement is -0.4%. `CCS(=O)(=O)c1nnnn1-c1ccccc1`: the displacement was determined as 9.4%. Consider `COc1ccc(C(=O)NCc2ccccc2)cc1Br`, for which the displacement is -8.5%. Then `Cc1cc(C(=O)Nc2cccc3ccccc23)co1`, with 18.6%; and `COC(=O)c1cc(C(=O)N2CCCC2)cc([N+](=O)[O-])c1`, with 12.7%; and `O=C1c2ccc(-c3nc4ccccc4c(=O)o3)cc2C(=O)N1c1c[nH]c(=O)[nH]c1=O`, with 5.5%. Under `CC(C)(C)NCCCCOc1cccc(Cl)c1` stands 4.2%.

Take `Cc1nc2cc(Cl)ccc2n1CCO`: the displacement was -6.6%. Under `CCOC(=O)c1c(C)nc2ccccn12` stands -2.1%; under `CCCN1C(=O)/C(=C2\SC(N)=NC2=O)c2ccccc21`, 8.8%. Consider `Cc1nc(Nc2nc3ccccc3o2)nc(C)c1C`, for which the displacement came out at 1.8%.

With `CCOc1ccccc1NC1=CC(=O)CC(c2ccccc2)C1` (configuration not stated), the displacement is -8.1%. Consider `O=C1/C(=C\c2cccs2)SC(=S)N1CCC(=O)N1CCCc2ccccc21`, for which the displacement amounted to 7.1%. Then `COc1ccccc1OCCSc1nc2ccc(Br)cc2[nH]1`, with -3.5%; and `CCOc1ccc(N(CC(=O)Nc2ccc(C)c(C)c2)S(=O)(=O)c2ccc(SC)cc2)cc1`, with 7.2%; and `Cc1nc2cc(N=Cc3ccccc3O)ccc2n1C`, with 12.7%. `CC/C(C)=N/NC(=O)c1[nH]c2ccc(C)cc2c1-c1ccccc1`: the displacement was -14.6%. With `CCOC(=O)c1ccc(NC(=O)c2cc(Cl)ccc2Cl)cc1`, the displacement was 10.8%.

In the case of `COc1ccc(NC(=O)C(=O)NCc2ccncc2)cc1Cl`, the displacement came to 12.6%.

Turning to `Cc1cc(OCC(O)CN2C(C)CCCC2C)ccc1C(C)C` (configuration not stated), the displacement came out at 2.4%. On to `Cc1ccccc1OCC(=O)Nc1cccc(F)c1`, for which the displacement was 10.9%. Then `O=C(NCc1ccc(F)cc1)c1ccc(Br)cc1`, with 6%. Take `O=C(CCCOc1ccccc1)Nc1ccc([N+](=O)[O-])cc1`: the displacement was -8.3%. Take `CC(C)(C)c1ccc(S(=O)(=O)Nc2ccc(O)c(Cl)c2)cc1`: the displacement came out at 12.2%.
